In the supplement of paper PMC9446081 one finds relative growth data, which are given here for 41 compounds.

Hit rate of the full screen: of about 39,000 compounds, about 220 (0.56%) showed activity. The list shows a part of the results.
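Note: static incubation at 37 °C against the wild-type strain, values averaged over two biological replicates.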

The test system of this test is Escherichia coli K-12 BW25113. The experiment in a line: relative growth (OD600 normalised to plate interquartile mean) (fraction); higher = less growth inhibition, active = 0.2 or less. Particulars: 50 µM; LB; incubation time: overnight (16-24 h).
Consider `C[C@@H]1CCCCO[C@@H](CN(C)Cc2ccncc2)[C@H](C)CN([C@@H](C)CO)C(=O)c2cc(NS(=O)(=O)c3ccc(Cl)cc3)ccc2O1`, for which the relative growth was inactive: 1.01.
As to `C[C@@H]1CN([C@@H](C)CO)S(=O)(=O)c2ccc(C#Cc3cccc(F)c3)cc2O[C@H]1CN(C)S(=O)(=O)c1ccccc1F`, the relative growth was inactive: 0.97.
In the case of `CC(C)CC#Cc1ccc2c(c1)O[C@H](CN(C)Cc1cncnc1)[C@H](C)CN([C@@H](C)CO)S2(=O)=O`, the relative growth was inactive: 1.01.
For the compound `N#C/C(=C\c1ccc(C(F)(F)F)cc1)c1c[nH]c2ccccc12`, the relative growth is inactive: 1.02.
For `O=C(c1ccccc1F)N1c2ccccc2Sc2ccccc21` the value was inactive: 1.01.
For `C[C@@H]1CN([C@@H](C)CO)C(=O)c2cc(NS(=O)(=O)c3ccc(Cl)cc3)ccc2O[C@@H]1CN(C)Cc1ccc(C(F)(F)F)cc1` the value was inactive: 1.02; for `C[C@@H]1CN([C@@H](C)CO)C(=O)Cc2cc(NS(=O)(=O)c3ccccc3)ccc2O[C@H]1CN(C)Cc1ccc(C(=O)O)cc1`, inactive: 0.986; for `C[C@@H]1CN([C@H](C)CO)C(=O)c2cc(NC(=O)C3CC3)ccc2O[C@H]1CN(C)Cc1ccc2c(c1)OCO2`, inactive: 0.997.
On to `C[C@@H]1CCCCO[C@H](CN(C)Cc2ccc3c(c2)OCO3)[C@@H](C)CN([C@@H](C)CO)C(=O)c2cc(NC(=O)CCC(F)(F)F)ccc2O1`, for which the relative growth was inactive: 1.01.
Turning to `CN1C(=O)c2cc(NC(=O)c3cccs3)ccc2OC[C@H]2O[C@H](CC(=O)NCCN3CCCCC3)CC[C@H]21`, the relative growth is inactive: 1.01.
Regarding `CCS(=O)(=O)N1CC[C@]2(CC1)CN([C@@H](CO)c1[nH]c3cc(ccc3c12)OC)S(=O)(=O)c1cccc(c1)OC`, the relative growth is inactive: 0.986.
As for `C[C@H](CO)N1C[C@H](C)[C@@H](CN(C)S(C)(=O)=O)Oc2ccc(NS(C)(=O)=O)cc2C1=O`, the relative growth is inactive: 0.898.
For `CCCNC(=O)Nc1ccc2c(c1)C(=O)N(C)C[C@H](OC)[C@H](C)CN(Cc1ccc(-c3ccccn3)cc1)[C@@H](C)CO2`, the relative growth is inactive: 1.01.
In the case of `C[C@@H]1CN([C@H](C)CO)C(=O)Cc2cc(NC(=O)CCN3CCOCC3)ccc2O[C@@H]1CN(C)Cc1ccc(C(=O)Nc2ccccc2N)cc1`, the relative growth is inactive: 0.991.
Under `Cc1noc(C)c1NC(=O)N(C)C[C@@H]1Oc2ccc(NC(=O)Nc3cccc4ccccc34)cc2C(=O)N([C@@H](C)CO)C[C@H]1C` stands inactive: 0.988; under `C[C@@H]1CN([C@@H](C)CO)C(=O)c2cc(NS(=O)(=O)c3cn(C)cn3)ccc2O[C@@H](C)CCCCO[C@@H]1CN(C)C(=O)CCCN(C)C`, inactive: 0.917.
Turning to `C=C[C@](C)(O)CCC=C(C)C`, the relative growth is inactive: 0.986.
Take `CC(C)(C)[S@@](=O)N1Cc2cc(C(=O)N3CCCCC3)nc(-c3cccc(-c4ccccc4F)c3)c2[C@H]1CCO`: the relative growth is inactive: 1.
Take `C[C@@H]1CN([C@H](C)CO)C(=O)c2cc(NC(=O)CCC(F)(F)F)ccc2O[C@H]1CN(C)Cc1ccc(Oc2ccccc2)cc1`: the relative growth was inactive: 0.998.
For `C=CC(=O)N1C[C@@H]2CC[C@H](O)[C@@H]2C1` the value was inactive: 1.
Turning to `Cn1c(-c2ccccc2)c[nH]c1=S`, the relative growth was inactive: 1.01.
Turning to `CC(C)[Si](OCC[C@H]1O[C@]2(C(=O)N(Cc3ccccc3)c3ccccc32)[C@@H](C)[C@@H]1[Si](C)(C)O)(C(C)C)C(C)C`, the relative growth was inactive: 1.01.
`C[C@@H]1CN([C@@H](C)CO)C(=O)Cc2cc(NC(=O)Nc3ccc(C(F)(F)F)cc3)ccc2O[C@H]1CN(C)Cc1ccc(C(=O)O)cc1`: the relative growth was inactive: 0.938.
Under `COc1cc2nccc(Oc3ccc(NC(=O)C4(C(=O)Nc5ccc(F)cc5)CC4)cc3)c2cc1OC` stands inactive: 0.971.
Turning to `Cc1ncc([N+](=O)[O-])n1CC(O)CCl` (stereo unspecified), the relative growth is inactive: 1.1.
For `C[C@@H]1CN([C@@H](C)CO)C(=O)c2cccc(NC(=O)c3ccc(-c4nccs4)cc3)c2O[C@H]1CN(C)Cc1ccc(C(F)(F)F)cc1` the value was inactive: 1.01.
`COc1ccc(NC(=O)N(C)C[C@H]2Oc3ncc(C#CC(C)C)cc3C(=O)N([C@@H](C)CO)C[C@H]2C)cc1`: the relative growth was inactive: 1.03.
Consider `O=C(/C=C/c1ccc(O)c(O)c1)O[C@]1(C(=O)O)C[C@@H](O)[C@H](O)[C@H](O)C1`, for which the relative growth was inactive: 1.03.
For `COc1ccc(CN(C)C[C@H]2OCCCC[C@@H](C)Oc3ccc(NC(=O)C4CCCCC4)cc3C(=O)N([C@H](C)CO)C[C@H]2C)cc1` the value was inactive: 0.995.
Consider `C[C@H]1CN([C@@H](C)CO)C(=O)Cc2cc(NC(=O)Nc3ccc(C(F)(F)F)cc3)ccc2O[C@H]1CN(C)Cc1ccc(C(=O)O)cc1`, for which the relative growth is inactive: 0.974.
For `C[C@@H]1CN([C@@H](C)CO)C(=O)c2cc(NS(=O)(=O)c3ccccc3)ccc2O[C@@H](C)CCCCO[C@H]1CN(C)C(=O)Nc1ccc(C(F)(F)F)cc1` the value was inactive: 0.995; for `Oc1ccc(C2(c3ccccc3F)CCC(F)(F)CC2)cc1`, inactive: 0.909; for `NCc1nnnn1C1CCCCC1`, inactive: 0.982.
As for `CC(C)NC(=O)Nc1ccc2c(c1)CC(=O)N([C@H](C)CO)C[C@H](C)[C@H](CN(C)Cc1ccc(Oc3ccccc3)cc1)O2`, the relative growth is inactive: 1.02.
Regarding `CN1C(C(=O)Nc2ccccn2)=C(O)c2sccc2S1(=O)=O`, the relative growth is inactive: 1.03.
On to `C[C@H](CO)N1C[C@H](C)[C@@H](CN(C)C(=O)Cc2ccncc2)Oc2ncc(C#CC3(O)CCCC3)cc2C1=O`, for which the relative growth was inactive: 1.02.
As to `C(=N\n1cnnc1)/c1ccccn1`, the relative growth is inactive: 1.02.
For `COc1ccc(CN(C)C[C@H]2Oc3ccc(NS(=O)(=O)c4c(C)noc4C)cc3C(=O)N([C@H](C)CO)C[C@@H]2C)cc1` the value was inactive: 1.
For the compound `C[C@@H]1CN([C@@H](C)CO)C(=O)c2cc(NC(=O)Nc3ccc(C(F)(F)F)cc3)ccc2O[C@@H](C)CCCCO[C@@H]1CN(C)C(=O)NC1CCCCC1`, the relative growth is inactive: 1.06.
Regarding `O=C(C[C@@H]1CC[C@@H]2[C@H](COC[C@H](O)CN2S(=O)(=O)c2ccccc2F)O1)N1CCC(Cc2ccccc2)CC1`, the relative growth is inactive: 1.01.
In the case of `Cc1ccc(S(=O)(=O)Nc2cccc3c2O[C@@H](CN(C)C(=O)Nc2cccc4ccccc24)[C@@H](C)CN([C@H](C)CO)C3=O)cc1`, the relative growth is inactive: 0.978.
